From PubChem BioAssay AID504333 (National Center for Advancing Translational Sciences (NCATS), 2011)
Among all 360,000 compounds or so, about 16,000 (4.4%) were called active. The shares of active, inactive and inconclusive entries below differ from those in the screen. The call rests on the fitted dose curve; in most records, active means well fitted inhibition curve with a large enough effect; inconclusive means small, poorly fitted or top-dose-only effect; inactive means no such curve, though single readings can be large or run the other way. A potency beside an inconclusive call is a rough fit, not a confirmed value.

biological target: Bromodomain adjacent to zinc finger domain protein 2B (Homo sapiens) (UniProt Q9UIF8); test: qHTS Assay for Inhibitors of BAZ2B; conditions: AlphaScreen BAZ2B-H3K14Ac peptide displacement; activity change, negative = inhibition: at 114 µM (top of the series); further: nearly all actives have a fitted effect of over 60% in size
UniProt Q9UIF8, sequence (Q9UIF8 whole entry, looked up, the tested form may be a part): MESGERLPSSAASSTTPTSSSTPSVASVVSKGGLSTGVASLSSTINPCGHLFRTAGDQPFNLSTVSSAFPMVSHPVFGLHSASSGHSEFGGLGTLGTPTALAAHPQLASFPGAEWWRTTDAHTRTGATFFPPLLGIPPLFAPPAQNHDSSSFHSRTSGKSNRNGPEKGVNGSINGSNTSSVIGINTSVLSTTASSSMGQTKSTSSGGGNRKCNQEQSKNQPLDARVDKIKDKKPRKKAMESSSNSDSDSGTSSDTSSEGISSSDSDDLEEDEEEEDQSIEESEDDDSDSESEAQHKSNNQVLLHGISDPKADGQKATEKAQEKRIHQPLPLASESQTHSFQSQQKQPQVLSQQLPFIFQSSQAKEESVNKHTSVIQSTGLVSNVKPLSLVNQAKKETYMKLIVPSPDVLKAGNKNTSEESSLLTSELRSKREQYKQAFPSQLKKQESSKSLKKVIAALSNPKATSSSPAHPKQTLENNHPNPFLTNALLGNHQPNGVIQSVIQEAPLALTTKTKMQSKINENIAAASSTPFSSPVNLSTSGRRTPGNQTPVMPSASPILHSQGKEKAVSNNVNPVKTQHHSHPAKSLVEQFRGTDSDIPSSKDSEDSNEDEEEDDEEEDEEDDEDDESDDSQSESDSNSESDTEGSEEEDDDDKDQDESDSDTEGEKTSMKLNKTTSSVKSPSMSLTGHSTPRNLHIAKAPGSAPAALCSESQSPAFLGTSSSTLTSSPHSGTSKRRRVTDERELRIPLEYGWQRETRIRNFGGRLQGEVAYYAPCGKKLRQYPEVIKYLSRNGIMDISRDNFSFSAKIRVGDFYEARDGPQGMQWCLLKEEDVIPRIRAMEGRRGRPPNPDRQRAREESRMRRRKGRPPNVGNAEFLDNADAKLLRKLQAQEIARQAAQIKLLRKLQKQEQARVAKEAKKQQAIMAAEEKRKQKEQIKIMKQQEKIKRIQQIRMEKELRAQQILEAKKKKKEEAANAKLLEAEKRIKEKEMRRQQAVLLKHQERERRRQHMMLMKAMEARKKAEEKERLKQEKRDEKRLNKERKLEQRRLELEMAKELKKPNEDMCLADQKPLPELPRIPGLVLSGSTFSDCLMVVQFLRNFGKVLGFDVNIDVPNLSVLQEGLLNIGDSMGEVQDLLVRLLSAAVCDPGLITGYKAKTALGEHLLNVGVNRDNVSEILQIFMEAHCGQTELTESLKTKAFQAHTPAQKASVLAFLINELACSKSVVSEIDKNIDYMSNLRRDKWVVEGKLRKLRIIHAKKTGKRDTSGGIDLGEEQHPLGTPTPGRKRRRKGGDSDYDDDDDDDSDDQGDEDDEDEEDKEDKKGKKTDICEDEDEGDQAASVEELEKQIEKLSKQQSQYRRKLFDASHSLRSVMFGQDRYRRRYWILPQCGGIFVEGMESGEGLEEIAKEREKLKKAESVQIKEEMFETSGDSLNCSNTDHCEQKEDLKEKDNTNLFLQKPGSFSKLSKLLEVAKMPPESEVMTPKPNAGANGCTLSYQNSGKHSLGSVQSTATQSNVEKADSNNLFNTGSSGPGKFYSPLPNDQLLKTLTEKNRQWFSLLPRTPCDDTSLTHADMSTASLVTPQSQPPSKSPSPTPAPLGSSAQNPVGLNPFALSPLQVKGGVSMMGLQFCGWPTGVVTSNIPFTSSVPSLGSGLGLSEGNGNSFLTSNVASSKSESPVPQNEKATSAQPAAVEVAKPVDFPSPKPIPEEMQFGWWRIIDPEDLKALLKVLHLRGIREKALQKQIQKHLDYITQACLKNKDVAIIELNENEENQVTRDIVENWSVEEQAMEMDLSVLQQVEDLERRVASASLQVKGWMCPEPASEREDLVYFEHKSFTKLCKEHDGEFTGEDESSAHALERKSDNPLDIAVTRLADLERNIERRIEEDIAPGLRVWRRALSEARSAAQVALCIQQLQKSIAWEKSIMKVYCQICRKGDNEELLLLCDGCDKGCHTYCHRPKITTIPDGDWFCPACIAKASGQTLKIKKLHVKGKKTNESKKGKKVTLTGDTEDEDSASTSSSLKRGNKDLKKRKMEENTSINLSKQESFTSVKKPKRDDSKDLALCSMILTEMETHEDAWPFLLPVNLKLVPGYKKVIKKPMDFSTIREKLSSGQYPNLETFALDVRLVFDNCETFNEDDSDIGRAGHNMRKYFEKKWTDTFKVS
In short: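 AlphaScreen displacement: compounds (up to 110uM) incubated 30 min at room temperature with a preformed 50 nM BAZ2B/50 nM biotinylated H3K14Ac peptide complex in PBS pH 7.4 with Tween-20. Donor and acceptor beads at 10 ug/mL final added, 20 min light-protected before reading.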
On the % scale 0 is the no-effect control and ±100 the full control effect; potency means the concentration at half of the fitted maximal effect; tags describe the fitted curve by direction and shape.

SMILES	activity change, negative = inhibition	Potency
CN(C)C(=O)c1ccc2c(c1)N(CC(=O)NCc1ccccc1Cl)C(=O)C1CCCCN21 (centres undefined)	inactive: -5.08%	–
C=CCOc1ccc(/C(O)=C2/C(=O)C(=O)N(CCCn3ccnc3)C2c2cccs2)cc1 (centres undefined)	inactive: -31.9%	–
COc1ccc(N(CC(=O)NC2CCCCC2)C(=O)c2ccc(C)s2)c(OC)c1	inactive: -5.07%	–
Cc1cc(C(=O)COC(=O)c2ccc(N)cc2)c(C)n1-c1c(C)n(C)n(-c2ccccc2)c1=O	–	inconclusive: 89.1 µM [inhibitor, single point]
CC(C)c1ccccc1-n1c(SCc2cc(=O)oc3ccc4ccccc4c23)nnc1-c1cccnc1	–	inconclusive: 89.1 µM [inhibitor, single point]
CCOc1ccc(N2C(=O)C(Cl)=C(N3CCOCC3)C2=O)cc1	inactive: -29.4%	–
COc1cccc(CNCC(=O)Nc2ccc(N3CCOCC3)cc2)c1	–	active: 50.1 µM
Cc1ccc(O)c(/C=N/NC(=O)CN2CCCC2)c1	–	active: 50.1 µM
O=C(O)c1[nH]c2ccccc2c1C(c1cc(Cl)cc([N+](=O)[O-])c1O)c1c(C(=O)O)[nH]c2ccccc12	–	inconclusive: 79.4 µM [inhibitor, single point]
O=[N+]([O-])/C=C/c1cn(Cc2ccc(F)cc2)c2ccccc12	–	inconclusive: 89.1 µM [inhibitor, single point]
CC1=C(C(=O)Nc2cccc(C(=O)NC3CCCCC3C)c2)SCCO1 (centres undefined)	–	inconclusive: 79.4 µM [inhibitor, single point]
Cc1cccc(OCCNc2cc(N3CCN(CCO)CC3)ccc2[N+](=O)[O-])c1	–	inconclusive: 44.7 µM [inhibitor, partial curve]
C/C(=N\Nc1cccc(C(F)(F)F)c1)c1ccc(O)cc1	–	inconclusive: 70.8 µM [inhibitor, single point]
COc1ccc(OC)c(CNC(=O)c2ccc3c(c2)c(C)c(C)n3C)c1	–	active: 35.5 µM
Cc1ccc2c3c1C(=O)C(=O)N3C(C)(C)CC2C (centres undefined)	–	inconclusive: 44.7 µM [inhibitor, partial curve, poor fit]
Fc1ccc(C2=CC(c3ccco3)n3ncnc3N2)cc1 (centres undefined)	–	inconclusive: 100 µM [inhibitor, single point]
Cc1ccc2nc(-c3ccc(C)o3)c(Nc3ccc4c(c3)OCCO4)n2c1	–	inconclusive: 50.1 µM [inhibitor, partial curve, poor fit]
CCc1ccc(-n2c(C)cc(/C=N/NC(=O)OC)c2C)cc1	–	inconclusive: 89.1 µM [inhibitor, single point]
O=C(N/N=C/c1ccco1)c1ccccc1OCc1ccccc1Cl	inactive: -37.8%	–
